The EC50 is the concentration giving half of the maximal effect. For orientation: IC50 means the point on the concentration scale where inhibition reaches its midpoint. High values mean weaker potency in that assay, low ones greater potency in that assay.

1 molecule from patent US20250282874A1 (SUZHOU TRANSCENTA THERAPEUTICS, published 2025) can be followed below.

Test [1] addresses T1, human PD-L1 expressed on cells (human, UniProt Q9NZQ7). Nature of the test: cell-based or functional assay.
In test [2] the target is human IL-1R on HEK293-CD40L reporter cells (human). The test is described as follows: cell-based or functional assay.
In test [3] the target is T2, hPD-L1 (Acro Biosystems, PD1-H5229) (human, UniProt Q9NZQ7 in part).
T2 construct: also called human PD-L1; hPD-L1 protein
Nature of the test: ELISA, hPD-L1 coated, anti-human Fc-HRP, OD450.

For test [4], the target named is T1, human PD-L1 expressed on cells. Nature of the test: flow cytometry on 293T-PD-L1-CD3L cells, PE anti-human IgG, Mean PE-A. On the technique in general: In flow cytometry, cells or beads pass a laser one at a time.
Test [5] deals with T3, Human IL-1RI-his (Sino Biological, Cat #10126-H08H) (human, UniProt P14778 18-332).
T3 construct: not shown: His tag
T3 sequence (looked up): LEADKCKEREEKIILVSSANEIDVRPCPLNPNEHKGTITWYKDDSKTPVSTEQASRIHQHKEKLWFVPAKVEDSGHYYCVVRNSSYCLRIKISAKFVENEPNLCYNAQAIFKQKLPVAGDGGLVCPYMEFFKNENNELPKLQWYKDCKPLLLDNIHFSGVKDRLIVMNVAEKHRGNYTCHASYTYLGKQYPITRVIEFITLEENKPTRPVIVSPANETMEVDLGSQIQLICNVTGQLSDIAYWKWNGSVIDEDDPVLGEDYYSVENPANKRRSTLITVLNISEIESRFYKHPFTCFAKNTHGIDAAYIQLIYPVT
Nature of the test: competition ELISA, human IL-1β coated, Human IL-1RI-his added with the titrated sample, anti-His-HRP, OD450. For orientation: An ELISA detects its analyte on a solid surface through an enzyme-linked reagent.

T1 sequence (Q9NZQ7 19-290): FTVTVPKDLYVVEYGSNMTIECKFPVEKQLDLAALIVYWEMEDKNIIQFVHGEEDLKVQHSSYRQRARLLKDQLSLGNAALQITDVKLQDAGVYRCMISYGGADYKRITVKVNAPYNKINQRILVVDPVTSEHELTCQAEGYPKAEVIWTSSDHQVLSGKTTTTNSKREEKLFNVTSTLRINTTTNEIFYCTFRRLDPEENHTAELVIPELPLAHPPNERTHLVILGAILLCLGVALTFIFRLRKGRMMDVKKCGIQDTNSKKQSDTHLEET

B1: AM4B6-hIgG1-IL-1RA (other)
heavy: QVQLVQSGAEVKKPGASVKVSCKASGYVFTDYYMNWVRQAPGQSLEWMGDINPNNAETLYNHKFKGRVTVTVDKSISTAYMELSRLRSDDTAVYYCVKWGDGPFAYWGQGTLVTVSS[human IgG1 constant region omitted here]GGGGSGGGGSGGGGSGGGGSGKMQAFRIWDVNQKTFYLRNNQLVAGYLQGPNVNLEEKIDVVPIEPHALFLGIHGGKMCLSCVKSGDETRLQLEAVNITDLSENRKQDKRFAFIRSDSGPTTSFESAACPGWFLCTAMEADQPVSLTNMPDEGVMVTKFYFQEDE
light: DIQMTQSPSSLSASVGDRVTITCKASQNVGAAVAWYQQKPGKAPKLLIYSVSDRYTGVPSRFSGSGSGTDFTLTISSLQPEDIATYYCQQYSNYPTFGQGTKLEIKRTVAAPSVFIFPPSDEQLKSGTASVVCLLNNFYPREAKVQWKVDNALQSGNSQESVTEQDSKDSTYSLSSTLTLSKADYEKHKVYACEVTHQGLSSPVTKSFNRGEC
notes: Bi-functional fusion of AM4B6 IgG1 with IL-1RA (34-177) on the heavy chain C-terminus; also called AM4B6-hIgG1-IL-1RA (34-177); AM4B6-hIgG1-IL-1RA BsAb
Take B1: in test [1], the “IC50 (so in the source), NFAT-luciferase luminescence, 293T-PD-L1-CD3L cells with Jurkat-NFAT-Luc-PD1 cells” value came out at 1.23 nM. Moreover, in test [2], the “IC50, SEAP at OD 620 nm, HEK-Blue CD40L reporter cells stimulated with human IL-1β” value came out at 0.0434 nM. Further, the EC50 stood at 0.0815 nM in test [3] and 1.15 nM in test [4]. The molecule further came in with an IC50 in test [5] of 5.95 nM.
